Some of the results follow. Values were computed here from the reads of four pooled replicates and scatter widely.
Each sequence was assayed against T1, Pho4 (S. cerevisiae) (UniProt P07270) (assay: relative binding free energy (BET-seq); higher = weaker binding). Settings: reference: library average.
T1 sequence: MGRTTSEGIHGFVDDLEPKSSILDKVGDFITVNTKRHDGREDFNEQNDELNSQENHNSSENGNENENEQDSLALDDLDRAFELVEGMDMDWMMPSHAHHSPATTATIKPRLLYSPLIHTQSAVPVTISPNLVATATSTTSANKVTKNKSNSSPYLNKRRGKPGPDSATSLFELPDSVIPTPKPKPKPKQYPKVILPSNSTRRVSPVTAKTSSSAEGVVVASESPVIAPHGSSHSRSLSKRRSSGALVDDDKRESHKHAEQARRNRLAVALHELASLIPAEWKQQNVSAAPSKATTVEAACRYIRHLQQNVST

| Sequence | relative binding free energy [kcal/mol] |
| --- | --- |
| GGGATCACGTGTGTAG | 0.31 |
| AATGCCACGTGAGTGT | 0.2 |
| TGTGACACGTGGTTTC | 0.11 |
| TTGCACACGTGGGTTT | -0.08 |
| AGGTGCACGTGAGAGG | 0.19 |
| TGTTACACGTGATAGC | 0.14 |
| CTGAGCACGTGTGTTG | -0.04 |
| TTGGTCACGTGTACAT | 0.16 |
| AGTCGCACGTGCTGGT | -0.15 |
| GAGGCCACGTGGTTTT | 0.01 |
| AGAAACACGTGGCGGG | -0.09 |
| GTTTGCACGTGTCGAT | 0.17 |
| CGAGTCACGTGTTGGT | 0.04 |
| TGCTTCACGTGATTGA | 0.3 |
| GTGTGCACGTGGGTGC | -0.13 |
| GTGAGCACGTGATTAG | 0.06 |
| AACGTCACGTGAAGGG | 0.27 |
| TCATGCACGTGGTATA | -0.1 |
| AATGGCACGTGTATTT | -0.02 |
| GGCGGCACGTGAATTT | 0.31 |
| TCTGTCACGTGTTGCA | 0.03 |
| GGAAGCACGTGGTGAT | -0.22 |
| AGTTCCACGTGGTGAT | 0.05 |

| Sequence | relative binding free energy [kcal/mol] |
| --- | --- |
| TTTGGCACGTGACTCG | 0.05 |
| CATCACACGTGTTGTG | 0.24 |
| TGTCACACGTGGGGGT | -0.02 |
| TGTTTCACGTGAGCCG | 0.48 |
| CATGGCACGTGTGATT | -0.06 |
| TGGTGCACGTGTTAGA | -0.05 |
| TGGTGCACGTGTGTCC | -0.03 |
| AGGTCCACGTGGAGTA | -0.04 |
| GGTATCACGTGAAGAG | 0.29 |
| TATAGCACGTGCGGTA | -0.14 |
| GTAAGCACGTGGGGAC | -0.02 |
| TTTACCACGTGTTGTC | 0.09 |
| GTTCTCACGTGGATGT | 0.29 |
| GTTCACACGTGTTTGA | 0.06 |
| GGTGTCACGTGGGAGT | 0.06 |
| ATGACCACGTGGTTGT | -0.14 |
| GATGACACGTGTGTCT | 0.23 |
| GAGTTCACGTGTATTG | 0.08 |
| TGGTTCACGTGGACTC | 0.33 |
| TGCTGCACGTGTTGGG | 0.09 |
| TATTTCACGTGGGAGC | 0.34 |
| AAGTTCACGTGGTATT | 0.15 |
| TTGAGCACGTGAGGAC | 0.44 |

| Sequence | relative binding free energy [kcal/mol] |
| --- | --- |
| AGGTACACGTGGGCTA | -0.09 |
| TCTATCACGTGGTTGT | 0.15 |
| AGTAGCACGTGGTAAT | -0.19 |
| GTTTGCACGTGGGCGG | -0.04 |
| CTTTTCACGTGTATGG | 0.32 |
| TGCTTCACGTGGTTGT | 0.3 |
| AAAGTCACGTGGAGGA | 0.07 |
| GGGGACACGTGATGCA | 0.13 |
| TCTATCACGTGTAGTT | 0.26 |
| TAGGGCACGTGCATGG | -0.26 |
| GGTATCACGTGTTTCA | 0.23 |
| GCGATCACGTGCGTGG | 0.15 |
| GGTTGCACGTGTCGGC | 0.04 |
| TTTGACACGTGGAGGG | -0.02 |
| GGGGTCACGTGAATGA | 0.35 |
| CGGGTCACGTGAATAG | 0.25 |
| TGTTACACGTGGAGGA | 0.09 |
| AGGACCACGTGTCGGG | 0.07 |
| GGCGTCACGTGGTTAT | 0.07 |
| ATGGTCACGTGGGGTT | 0.04 |
| AAGGACACGTGATTTA | 0.24 |
| AGAACCACGTGAGGTT | 0.4 |
| ACTGGCACGTGTAGTT | -0.08 |

| Sequence | relative binding free energy [kcal/mol] |
| --- | --- |
| TTTCGCACGTGGTATT | -0.15 |
| TGACACACGTGGGTGG | -0.16 |
| GGTTTCACGTGTGCTC | 0.3 |
| TAATACACGTGGTATG | -0.08 |
| GTGAACACGTGGAGTT | -0.03 |
| TTGGTCACGTGAGTGC | 0.25 |
| TCATTCACGTGGATTG | 0.18 |
| GCTTGCACGTGCTGTG | -0.01 |
| GGGTACACGTGTGCAT | 0.1 |
| TAGTGCACGTGTATGG | 0.06 |
| TCAGTCACGTGTGATG | 0.17 |
| ATTGTCACGTGGTTGG | 0.01 |
| TGTGTCACGTGCTTGG | 0.05 |
| GTATTCACGTGTTTAG | 0.18 |
| GAAGGCACGTGGTATG | -0.11 |
| GAGTTCACGTGCATGG | 0.4 |
| TGTGTCACGTGGAATC | 0.12 |
| GGAAACACGTGGGGAT | -0.16 |
| TTGTCCACGTGGGCGG | -0.07 |
| ATTGGCACGTGCGAAT | -0.13 |
| TTAAACACGTGAGGAG | 0.31 |
| CGTTACACGTGGCGGT | 0.18 |
| GGTTGCACGTGGAATA | 0.02 |

| Sequence | relative binding free energy [kcal/mol] |
| --- | --- |
| ATTATCACGTGATCGT | 0.26 |
| ACTGACACGTGAGTGG | 0.27 |
| GTTTACACGTGAAGGT | 0.45 |
| ACGTTCACGTGAGCGG | 0.34 |
| TGATCCACGTGAGGGA | 0.22 |
| GTTAGCACGTGGAGAA | 0.07 |
| GTTTTCACGTGGTAGC | 0.33 |
| AAAGGCACGTGTGAGT | -0.03 |
| TATGTCACGTGCTGTT | 0.14 |
| AGTCACACGTGGTATG | -0.07 |
| TTTATCACGTGTAGAC | 0.24 |
| GGCGGCACGTGTCAGT | 0.05 |
| TTTTTCACGTGTGCTA | 0.21 |
| GCTGACACGTGGGTGG | -0.05 |
| ATTGTCACGTGGGGAA | 0.11 |
| ATAACCACGTGTGTTG | -0.06 |
| CGTCTCACGTGGGTGG | 0.02 |
| TGTTTCACGTGCTGTT | 0.26 |
| ATAATCACGTGATAGT | 0.22 |
| GGGACCACGTGGGGTA | -0.14 |
| GGCGTCACGTGGTCAG | 0.1 |
| CGTATCACGTGTTGAT | 0 |
| GTAGACACGTGATGCG | 0.15 |

Reference: the BET-seq Pho4 binding data (Le et al. 2018)
